This note sets out measurements from publication PMC4336329 (PLoS ONE, 2015).

Among all 310,000 compounds or so, about 14,000 (4.5%) showed an effect of 50% or more. Effects have a minus sign here. The list shows a part of the results.
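Further: peak tail current of the secondary pulse compared with the same well before compound.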

Chain of human ether-à-go-go-related gene (hERG) potassium channel (Q12809 whole entry, looked up): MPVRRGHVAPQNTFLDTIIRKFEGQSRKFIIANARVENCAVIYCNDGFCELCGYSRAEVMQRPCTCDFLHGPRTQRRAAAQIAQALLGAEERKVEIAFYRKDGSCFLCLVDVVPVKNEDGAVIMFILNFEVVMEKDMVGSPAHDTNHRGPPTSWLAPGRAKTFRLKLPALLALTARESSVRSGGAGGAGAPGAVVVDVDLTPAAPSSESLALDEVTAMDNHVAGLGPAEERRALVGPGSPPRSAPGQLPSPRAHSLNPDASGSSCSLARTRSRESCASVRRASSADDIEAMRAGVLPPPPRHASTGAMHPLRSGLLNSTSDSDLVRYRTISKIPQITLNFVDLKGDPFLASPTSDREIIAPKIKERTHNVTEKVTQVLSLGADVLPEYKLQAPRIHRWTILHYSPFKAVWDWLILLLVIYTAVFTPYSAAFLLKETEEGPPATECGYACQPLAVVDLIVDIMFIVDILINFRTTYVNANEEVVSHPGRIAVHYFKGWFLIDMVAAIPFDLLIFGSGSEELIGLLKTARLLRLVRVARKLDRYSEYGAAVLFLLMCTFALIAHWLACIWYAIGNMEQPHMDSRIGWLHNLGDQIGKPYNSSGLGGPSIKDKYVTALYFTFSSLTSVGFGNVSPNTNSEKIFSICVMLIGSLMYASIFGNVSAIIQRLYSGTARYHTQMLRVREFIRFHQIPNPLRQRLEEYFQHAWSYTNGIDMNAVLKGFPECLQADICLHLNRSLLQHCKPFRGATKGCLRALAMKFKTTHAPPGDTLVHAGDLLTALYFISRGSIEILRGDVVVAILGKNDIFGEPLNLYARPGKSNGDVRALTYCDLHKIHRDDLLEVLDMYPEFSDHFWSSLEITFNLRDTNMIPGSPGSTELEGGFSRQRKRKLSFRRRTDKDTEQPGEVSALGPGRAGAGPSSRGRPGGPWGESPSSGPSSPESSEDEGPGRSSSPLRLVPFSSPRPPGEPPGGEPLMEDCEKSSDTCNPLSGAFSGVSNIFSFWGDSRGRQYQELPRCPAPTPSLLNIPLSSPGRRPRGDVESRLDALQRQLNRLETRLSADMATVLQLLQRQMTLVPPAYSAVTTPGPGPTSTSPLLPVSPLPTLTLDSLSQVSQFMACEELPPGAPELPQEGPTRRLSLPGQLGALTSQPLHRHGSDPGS

The assay concerns the target human ether-à-go-go-related gene (hERG) potassium channel (human, UniProt Q12809). The assay is described as follows: primary screen, population patch clamp on CHO cells stably expressing hERG.
For the compound `O=C(CS(=O)(=O)Cc1ccccc1)Nc1ccccc1Cl`, the “hERG current change (%, negative = inhibition) at 10uM” value was found to be 1.09%.
The same measure for `O=C(Nc1cccc(F)c1)C1CCCN(S(=O)(=O)c2ccccc2)C1` (centres unmarked): -0.679%; for `CN(C)CCOC(=O)CCc1ccccc1.Cl`: 1.4%.
With `CN(NC(=O)/C=C/C(=O)O)c1ncc(C(F)(F)F)cc1Cl`, the “hERG current change (%, negative = inhibition) at 10uM” value is -7.63%.
To `Nc1ccc2c(c1)C(=O)c1ccccc1C2=O` belongs 14.1%; to `O=C(Nc1nc(-c2ccccn2)cs1)c1ccc(Cl)s1`, -1.34%.
`COc1ccc(-c2cc(C(=O)NCCc3ccc(S(N)(=O)=O)cc3)c3ccccc3n2)cc1`: the “hERG current change (%, negative = inhibition) at 10uM” value is 11.3%.
To `O=C(C1=C[C@@H](c2coc3ccccc3c2=O)C[C@@H](OCc2ccc(CO)cc2)O1)N1CCCCCCC1` belongs -66.5%; to `Cc1ccc(C(=O)Nc2ccc(C(=O)/C=C/c3cccs3)cc2)cc1`, 16.2%.
To `COc1cccc(N/C(N)=N/c2nc(C(F)(F)F)cc(C(F)(F)F)n2)c1` belongs 1.67%; to `Cc1ccc(S(=O)(=O)Nc2cccc(C(=O)NCCCN3CCOCC3)c2)cc1F`, -10.2%; to `O=C(Nc1ccc(-c2nc3ccccc3c(=O)o2)cc1)c1ccco1`, -4.43%.
Take `N#Cc1c(/N=C/c2cccs2)sc2c1CCCCC2`: the “hERG current change (%, negative = inhibition) at 10uM” value was -3.08%.
Turning to `CCOC(=O)c1cc2c(=O)n3ccccc3nc2n(CC(C)C)c1=NC(=O)c1c(-c2c(F)cccc2Cl)noc1C`, the “hERG current change (%, negative = inhibition) at 10uM” value was 5.66%.
As to `CC(Sc1nnc(NCc2ccccc2)s1)C(=O)Nc1ccc2c(c1)C(=O)c1ccccc1C2=O` (centres unmarked), the “hERG current change (%, negative = inhibition) at 10uM” value is given as 1.78%.
Turning to `COC(=O)c1cc2c(ccn2-c2ccc(F)cc2)n1Cc1ccc(OC(C)=O)cc1`, the “hERG current change (%, negative = inhibition) at 10uM” value was determined as 6.74%.
In the case of `O=C(Cc1ccccc1)NNc1c2ccccc2nc2ccccc12`, the “hERG current change (%, negative = inhibition) at 10uM” value is 12.3%.
For the compound `COc1ccccc1-n1cc2c([N+](=O)[O-])cc([N+](=O)[O-])cc2n1`, the “hERG current change (%, negative = inhibition) at 10uM” value is recorded as 23.5%.
As to `COc1ccc(CN2CCN(Cc3ccc4ccccc4c3)CC2)cc1OC.O=C(O)C(=O)O`, the “hERG current change (%, negative = inhibition) at 10uM” value is -67%.
The same measure for `CC(C)(C)NC(=O)c1ccccc1-c1nc(-c2ccccc2Cl)no1`: -9.82%; for `Brc1cccc(CNCC2CCCO2)c1` (centres unmarked): 4.72%.
With `C/C(Cn1cnc([N+](=O)[O-])n1)=N/NC(=O)COc1ccccc1Cl`, the “hERG current change (%, negative = inhibition) at 10uM” value is on record as -5.36%.
The same measure for `O=C(Nc1cc(Sc2ccccn2)cc([N+](=O)[O-])c1)c1cccc(Cl)c1`: 2.34%; for `c1ccc(-c2ccc(CN3CCSCC3)cc2)cc1`: 7.72%.
The same measure for `O=C(CSc1nncn1-c1ccccc1)NC1CCCCC1`: 14.9%.
Turning to `O=C(CCCn1nnnc1CN1CCOCC1)N1CCN(c2ccccc2F)CC1`, the “hERG current change (%, negative = inhibition) at 10uM” value is on record as 11.5%.
In the case of `NC(=NCCc1c[nH]c2ccccc12)NC(=O)c1ccc(F)cc1`, the “hERG current change (%, negative = inhibition) at 10uM” value is -6.62%.
With `CCC(c1nnnn1C(C)(C)C)N(Cc1cccs1)Cc1cc2cc(C)c(C)cc2n2nnnc12` (centres unmarked), the “hERG current change (%, negative = inhibition) at 10uM” value amounted to 5.37%.
Consider `Cc1cccc(OCC(=O)N2CCN(C(=O)Cc3ccccc3)CC2)c1`, for which the “hERG current change (%, negative = inhibition) at 10uM” value is listed as -13.2%.
Turning to `CCCn1c(=O)c(C(=O)Nc2cc(C)ccn2)c(O)c2ccccc21`, the “hERG current change (%, negative = inhibition) at 10uM” value turned out to be 19.3%.
On to `CC(=O)N(\C=C/C=C/C=C1\Sc2ccccc2C1=O)c1ccccc1`, for which the “hERG current change (%, negative = inhibition) at 10uM” value was -3.47%.
The same measure for `CCN(CC)C(=O)Cn1cc(S(=O)(=O)CC(=O)N2CCCCCC2)c2ccccc21`: 5.51%; for `CCn1cnc2cc(NCc3ccc(C)cc3)ccc21`: -40.4%; for `COc1cc(/C=N/Nc2nc(C)cc(C)n2)cc(OC)c1OC`: 16.8%.
To `O=C(Nc1ncc2c(n1)-c1ccccc1CC2)c1ccc(F)cc1` belongs -3.91%; to `CCOC(=O)C1CCN(c2c(C(=O)c3ccccc3)cnc3ccc(CC)cc23)CC1`, -5.99%.
On to `CC(C)CCN=CC1=C(O)CC(c2ccccc2)CC1=O` (centres unmarked), for which the “hERG current change (%, negative = inhibition) at 10uM” value is recorded as 10.3%.
Take `O=C1Nc2ccccc2/C1=C/c1ccc([N+](=O)[O-])cc1`: the “hERG current change (%, negative = inhibition) at 10uM” value is on record as -8.67%.
In the case of `COc1cccc(NC(=O)COC(=O)c2ccc(F)cc2F)c1`, the “hERG current change (%, negative = inhibition) at 10uM” value was -25%.
The same measure for `CN(C)C(=O)c1ccc(COc2ccccc2Br)o1`: 4.49%; for `O=C1CC2(CCN(C(=O)c3ccccc3[N+](=O)[O-])CC2)Oc2ccccc21`: -62%; for `O=C(CSc1nc2ccccc2[nH]1)c1ccc2c(c1)OCO2`: -0.0917%.
In the case of `CC(c1cccs1)N(C(=O)Nc1ccccc1)C1CCCCC1` (centres unmarked), the “hERG current change (%, negative = inhibition) at 10uM” value is recorded as -23.3%.
On to `COc1ccccc1Nc1nc2ccc(C)cc2cc1C#N`, for which the “hERG current change (%, negative = inhibition) at 10uM” value is on record as 10.9%.
Turning to `Cc1ccc(C(=O)Oc2cc(-c3ccccc3)no2)cc1`, the “hERG current change (%, negative = inhibition) at 10uM” value is 4.43%.
For the compound `CCN(CC)S(=O)(=O)c1cccc(C(=O)OCC(=O)N2CC(=O)Nc3ccccc32)c1`, the “hERG current change (%, negative = inhibition) at 10uM” value is -27.2%.
For the compound `Cc1nc(SCC(=O)Nc2c(C)n(C)n(-c3ccccc3)c2=O)n[nH]1`, the “hERG current change (%, negative = inhibition) at 10uM” value is recorded as 10.7%.
In the case of `CCCCCCOC(=O)C[N+](C)(C)CCOC1CC2CCC1(C)C2(C)C.[Cl-]` (centres unmarked), the “hERG current change (%, negative = inhibition) at 10uM” value was -78.1%.
Turning to `N#Cc1ccc(-c2ccccc2)nc1SCC(=O)c1cccc(Cl)c1`, the “hERG current change (%, negative = inhibition) at 10uM” value stood at 22.6%.
The same measure for `CC1CN(CCOc2ccc(F)cc2)CC(C)O1.O=C(O)C(=O)O` (centres unmarked): 6.81%; for `Cc1nc(N)nc(SCc2ccc([N+](=O)[O-])cc2)c1N`: -74.6%.
The same measure for `CN(C(=O)c1ccc2c(c1)SC1=NS(=O)(=O)CCN12)C(c1ccccc1)c1ccccc1`: -61%.
As for `CC(=O)Nc1ccccc1NC(=O)c1ccc(C)c(C)c1`, the “hERG current change (%, negative = inhibition) at 10uM” value worked out at 10.9%.
Regarding `COc1ccc(-c2cc([C@H]3[C@H]4C=CC[C@@H](C)[C@@H]4C(=O)N3Cc3ccccc3)ccc2F)cc1`, the “hERG current change (%, negative = inhibition) at 10uM” value came out at 24.3%.
For `O=C1c2cccnc2C(=O)N1Cc1ccco1`, the “hERG current change (%, negative = inhibition) at 10uM” value is 6.6%.
On to `CSc1ncc(CN2CCCC(C(=O)c3sccc3C)C2)cn1` (centres unmarked), for which the “hERG current change (%, negative = inhibition) at 10uM” value is on record as -55.2%.
In the case of `COCCNC(=O)C(=O)N/N=C/c1ccccc1C(F)(F)F`, the “hERG current change (%, negative = inhibition) at 10uM” value came out at 9.03%.
For `OCC1(CO)COC2(CCCC2)N1`, the “hERG current change (%, negative = inhibition) at 10uM” value is recorded as 1.42%.
To `Cn1c(=O)c2ccccc2n(CC(=O)NCCC2=CCCCC2)c1=O` belongs 17.2%; to `CCOC(=O)N1CCc2c(sc3c2c(=O)n(Cc2ccccc2)c(=O)n3Cc2ccccc2F)C1`, 0.366%; to `C/C(=N\NC(=O)c1ccn(C)n1)c1cccc(NC(=O)c2ccncc2)c1`, -1.9%.
To `Cc1ccc(-n2nc(C)c(C3(O)C(=O)N(C)c4ccccc43)c2N)cc1` (centres unmarked) belongs -49.9%.
With `Cc1cccc(NC(=O)CN2CCN(C(=O)c3c(C)nn(Cc4ccccc4)c3C)CC2)c1C`, the “hERG current change (%, negative = inhibition) at 10uM” value is given as -20.4%.
Turning to `O=C(c1ccc(N2CCCS2(=O)=O)cc1)N1CCN(c2ccc(F)cc2)CC1`, the “hERG current change (%, negative = inhibition) at 10uM” value is -28.9%.
`C=CCn1c(SCC(=O)Nc2nnc(CC)s2)nnc1-c1ccncc1`: the “hERG current change (%, negative = inhibition) at 10uM” value is listed as 10.6%.
On to `CCCCCCCCCCOC(=O)Cn1c(COc2ccc(Cl)cc2)[n+](C)c2ccccc21.[Cl-]`, for which the “hERG current change (%, negative = inhibition) at 10uM” value is recorded as -76.2%.
Turning to `COc1ccc(CC(=O)Nc2ccc(C)c(S(=O)(=O)N3CCCCCC3)c2)cc1`, the “hERG current change (%, negative = inhibition) at 10uM” value was -21.6%.
The same measure for `O=c1[nH]c(=O)n([C@H]2C[C@H](O)[C@@H](CO)O2)cc1F`: 16.7%; for `Cc1nc2sc(C(N)=O)c(N)c2c(C)c1CC(=O)c1ccccc1`: 0.983%.
Turning to `CC(=O)Nc1ccc(SCC(=O)Nc2ccc(Cl)cn2)cc1`, the “hERG current change (%, negative = inhibition) at 10uM” value is recorded as 19.5%.
The same measure for `COc1ccc(C(C)=O)cc1COc1ncnc2ccccc12`: -1.57%; for `CCOc1cccc(CN2CCC(n3nccc3NC(=O)C3CC3)CC2)c1O`: -64.2%; for `Cc1ccc(OCC(=O)N(C)CC(=O)Nc2ccc(F)c(F)c2F)cc1`: 2.13%.
As to `Cc1nc(NC(=O)c2ccccc2)sc1-c1csc(NCc2ccco2)n1`, the “hERG current change (%, negative = inhibition) at 10uM” value is -0.662%.
Turning to `COc1ccc(C(CNC(=O)c2ccc(NS(=O)(=O)c3ccc(F)cc3)cc2)N2CCOCC2)cc1` (centres unmarked), the “hERG current change (%, negative = inhibition) at 10uM” value came out at 6.52%.
Turning to `Nc1ncnc2c1ncn2C1OC(C(=O)NC2CC2)C(O)C1O` (centres unmarked), the “hERG current change (%, negative = inhibition) at 10uM” value came out at 6.12%.
Regarding `Cc1ccc([N+](=O)[O-])cc1NC(=O)c1ccoc1C`, the “hERG current change (%, negative = inhibition) at 10uM” value was 6.81%.
As for `COc1ccc(C(=O)NN=C2CCCC2)c(OC)c1`, the “hERG current change (%, negative = inhibition) at 10uM” value came to 9.62%.
For `Nc1cc(-c2ccc(OC(F)(F)F)cc2)nn1-c1ccc(Cl)c(Cl)c1`, the “hERG current change (%, negative = inhibition) at 10uM” value turned out to be 9.26%.
For `O=S(=O)(c1ccc(Br)s1)N1CCC(Cc2ccccc2)CC1`, the “hERG current change (%, negative = inhibition) at 10uM” value came to 4.76%.
In the case of `CCCCN(C)C(=O)CCCc1c[nH]c2ccccc12`, the “hERG current change (%, negative = inhibition) at 10uM” value was 3.23%.
The same measure for `CCC(=O)N1CCc2cc(S(=O)(=O)NCCC(=O)N3CCc4ccccc4C3)ccc21`: -23.2%; for `O=C(CN1C(=O)NC2(CCCCC2)C1=O)NCc1ccc2c(c1)OCO2`: 18.9%; for `CCOc1ccc2[nH]c(=O)c(CN(Cc3ccco3)Cc3nnnn3Cc3ccccc3)cc2c1`: -20.6%.
With `CCS(=O)(=O)Nc1ccc(C2=NN(C(=O)c3ccco3)C(c3cccs3)C2)cc1` (centres unmarked), the “hERG current change (%, negative = inhibition) at 10uM” value is given as -1.38%.
Turning to `O=C(c1ccccc1)c1ccc(OCC(O)CN2CCOCC2)cc1` (centres unmarked), the “hERG current change (%, negative = inhibition) at 10uM” value is recorded as -10.8%.
